These results are taken from article PMC6919601, “Identification of Plasmodium dipeptidyl aminopeptidase allosteric inhibitors by high throughput screening” (PLoS ONE, 2019).

Each structure is given as a SMILES string. Where “and” joins values, the source holds several entries; their conditions need not be identical. Equal entries are not always repeated. The whole screen tested about 110,000 compounds, of which about 230 (0.21%) showed an effect of 50% or more. The list shows a part of the results.
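Also: 30 min substrate incubation versus DMSO and 10 µM JCP410 controls.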

DPAP1, sequence (Q8IIJ9 whole entry, looked up): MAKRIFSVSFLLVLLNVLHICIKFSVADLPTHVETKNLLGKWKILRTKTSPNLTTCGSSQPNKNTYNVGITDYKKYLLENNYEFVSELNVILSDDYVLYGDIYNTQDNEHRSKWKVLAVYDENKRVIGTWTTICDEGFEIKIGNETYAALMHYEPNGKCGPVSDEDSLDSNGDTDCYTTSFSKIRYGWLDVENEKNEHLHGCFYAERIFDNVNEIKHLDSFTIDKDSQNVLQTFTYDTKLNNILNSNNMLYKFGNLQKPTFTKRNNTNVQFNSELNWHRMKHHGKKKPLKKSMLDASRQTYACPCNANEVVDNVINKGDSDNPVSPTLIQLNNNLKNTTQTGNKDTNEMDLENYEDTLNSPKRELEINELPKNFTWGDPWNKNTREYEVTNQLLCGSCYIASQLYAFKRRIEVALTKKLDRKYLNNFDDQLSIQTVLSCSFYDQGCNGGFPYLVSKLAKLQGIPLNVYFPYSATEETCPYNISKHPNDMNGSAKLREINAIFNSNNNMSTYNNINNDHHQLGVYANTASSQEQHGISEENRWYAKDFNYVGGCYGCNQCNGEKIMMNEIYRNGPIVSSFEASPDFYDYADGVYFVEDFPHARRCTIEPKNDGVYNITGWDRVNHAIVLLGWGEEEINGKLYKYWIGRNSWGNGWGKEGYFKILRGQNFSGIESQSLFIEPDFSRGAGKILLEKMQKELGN

This assay addresses DPAP1 (Plasmodium falciparum, UniProt Q8IIJ9). Put plainly: primary screen, percent inhibition; read by cleavage of a fluorogenic dipeptide substrate; higher = more effect of the substance. Also noted: species or system P. falciparum D10 trophozoite lysates; single well.
Regarding `CN(C)c1ccc(/C=C/c2cc(C(F)(F)F)nc(O)n2)cc1`, the “% Inhibition @ 10 uM” value is -0.988%.

Regarding `Cc1cc([N+](=O)[O-])ccc1NC(=O)c1ccc(Cl)cc1Cl`, the “% Inhibition @ 10 uM” value came to 2.46%.

Take `Cc1cc(Cl)ccc1OCC(=O)Nc1ccc(S(=O)(=O)N2CCCCC2)cc1`: the “% Inhibition @ 10 uM” value is -3.95%. Consider `Cc1ccsc1-c1nc(CSCC(=O)NCc2cccs2)c(C)o1`, for which the “% Inhibition @ 10 uM” value amounted to 0.689%.

With `c1ccc(-c2ccc(-c3csc(Nc4cccc5ccccc45)n3)cc2)cc1`, the “% Inhibition @ 10 uM” value is recorded as 6.11%. For the compound `Cc1ccc(C(C)C)c(OCc2ccccc2C(=O)O)c1`, the “% Inhibition @ 10 uM” value is 0.776%. Under `O=C(CSc1ncc(-c2ccccc2)nn1)NC1=NN=C(c2ccccc2)CS1` stands -4.19%. With `CCN(CCc1ccccc1)CCN(C)C`, the “% Inhibition @ 10 uM” value is on record as -0.446%. Under `COc1ccc2[nH]c3c(c2c1)CCCC3=O` stands 1.54%; under `COc1cc(C(=O)Nc2ccc(S(=O)(=O)Nc3cc(C)cc(C)c3)cc2)cc(OC)c1OC`, -0.425%. As for `CCC(C)NC(=O)c1noc2c1COc1ccc(C)cc1-2` (stereo not drawn), the “% Inhibition @ 10 uM” value was -7.84%. Consider `Cn1nc(C(=O)NCCN(Cc2ccco2)C2CCCC2)c2c1-c1ccccc1OC2`, for which the “% Inhibition @ 10 uM” value is given as -1.72%. Regarding `Cc1ccccc1S(=O)(=O)NC(=O)Nc1ccnn1-c1ncc(C(F)(F)F)cc1Cl`, the “% Inhibition @ 10 uM” value was -5.34% and -4.12%.

In the case of `CN(Cc1ccccc1)S(=O)(=O)c1ccc2[nH]cc(C=O)c2c1`, the “% Inhibition @ 10 uM” value was 7.79%. Under `CS(=O)(=O)c1ccc2nc(NC(=O)C3CC=CCC3C(=O)O)sc2c1` (stereo not drawn) stands 0.751%; under `Cc1ccc(CNC(=O)Cn2c(SCc3ccc(C)cc3)nc3cccnc32)cc1`, 0.693%; under `CC(C)Oc1ccccc1/C=C1\CCc2ccccc2C1=O`, 1.07%. Then `COc1cccc(C2C(C(=O)Nc3cccnc3)=C(C)Nc3nc(CCCO)nn32)c1` (stereo not drawn), with -1.2%; and `CCn1cc(C(=O)O)c(=O)c2cc(F)c(N3CCNCC3)c(F)c21`, with 1.86%.

In the case of `CC(C)C[C@H](NC(=O)c1cccnc1)C(=O)N[C@@H](CCc1ccccc1)C(=O)c1ncc(-c2ccccc2)o1`, the “% Inhibition @ 10 uM” value is given as 0.744%. As to `CC1(C)Nc2ccccc2C(=O)N1c1ccc(Br)cc1`, the “% Inhibition @ 10 uM” value is listed as -2.03%.

For the compound `Cc1ccc(C2CC(C(F)(F)F)n3nc(C(=O)NCc4cnn(C)c4C)c(Cl)c3N2)cc1` (stereo not drawn), the “% Inhibition @ 10 uM” value was -6.38%.

In the case of `Cc1ccc(-n2nc(C)c3c(C(=O)NCCc4c[nH]cn4)cc(C)nc32)cc1`, the “% Inhibition @ 10 uM” value is on record as 3.75%. `COc1ccc(S(=O)(=O)N(C)CC(=O)NCc2ccc(Cl)cc2)cc1OC`: the “% Inhibition @ 10 uM” value is listed as -2.5%.

Take `CC(=O)Nc1ccc(NC(=O)c2ccc(C3SCC(=O)N3CCc3ccccc3)cc2)cc1` (stereo not drawn): the “% Inhibition @ 10 uM” value is listed as -3.72%.

As for `COc1cccc(-c2nc3nc(C)c(CCC(=O)N4CCCC4)c(C)n3n2)c1`, the “% Inhibition @ 10 uM” value is -6.03%. Regarding `O=c1[nH]c(=O)n(-c2ccc(Cl)cc2)c2c1C(C(F)(F)F)(C(F)(F)F)NC(c1cccnc1)=N2`, the “% Inhibition @ 10 uM” value was -5.23%. Under `Oc1ccc(Nc2nc(-c3ccccc3)cs2)cc1` stands 1%. Take `Cc1ccc2oc(C(=O)N3CCC(Cc4ccccc4)CC3)cc(=O)c2c1`: the “% Inhibition @ 10 uM” value worked out at 1.9%.

`CCC(Sc1ncccc1C(=O)OCCN1CCCC1=O)C(=O)NCc1ccco1` (stereo not drawn): the “% Inhibition @ 10 uM” value is on record as -3.35%.

Turning to `Cc1[nH]nc2c1C(c1cc(COc3ccc(F)cc3Cl)c(C)s1)C(C#N)=C(N)O2` (stereo not drawn), the “% Inhibition @ 10 uM” value was -0.305%.

With `CC(=O)c1ccc(Oc2nnnn2-c2ccccc2)cc1`, the “% Inhibition @ 10 uM” value is 2.72%.

Regarding `C(#Cc1ccccc1)CN1CCCCCC1`, the “% Inhibition @ 10 uM” value is given as -0.988%. As for `COc1ccc(CC(=O)N2CCN(C)CC2)cc1OC`, the “% Inhibition @ 10 uM” value is recorded as -5.48%.

On to `Cc1ccc(C(=O)N/C(=C\c2ccco2)C(=O)N2CCN(c3ccccn3)CC2)cc1C`, for which the “% Inhibition @ 10 uM” value is on record as -4.93%. For `CC(C)(C)NC(=O)NCCC12CC3CC(CC(C3)C1)C2`, the “% Inhibition @ 10 uM” value is recorded as -6.47%. Then `COc1ccc(C(NC(=O)CC(C)C)c2ccc3cccnc3c2O)cc1OC` (stereo not drawn), with -3.27%; and `COc1cc(OC)c(-c2nnc3n(CCc4ccccc4)c(=O)c4ccccc4n23)cc1OC`, with -1.72%.

On to `CCOc1ccc(NC(=O)CN(c2ccc(OC)c(Cl)c2)S(C)(=O)=O)cc1`, for which the “% Inhibition @ 10 uM” value is recorded as 1.52%.

`CC1CC(C)CN(C(=O)c2cccc3c2-c2ccccc2C3=O)C1` (stereo not drawn): the “% Inhibition @ 10 uM” value is -4.7%.

For `CCOC(=O)C1=C(CC)OC(N)=C(C#N)C1c1cccc2ccccc12` (stereo not drawn), the “% Inhibition @ 10 uM” value is 0.317%.

Turning to `CCOC(=O)c1sc2nc(C)c(C)c(C)c2c1NC(=O)c1ccccc1Cl`, the “% Inhibition @ 10 uM” value is 4.19%. For the compound `COc1ccc2ncc(S(=O)(=O)c3ccccc3)c(N3CCC(C)CC3)c2c1`, the “% Inhibition @ 10 uM” value is on record as -2.84%. With `O=C(Nc1cccc(F)c1)c1cc(Cl)c(Cl)c(S(=O)(=O)N2CCOCC2)c1`, the “% Inhibition @ 10 uM” value is listed as 8.72%. As for `Cc1ccc(Cc2nn[nH]n2)cc1`, the “% Inhibition @ 10 uM” value came out at 3.5%.

`COc1cc(OC)c(CN2CCCCC2)cc1Br`: the “% Inhibition @ 10 uM” value turned out to be 3.48%. As to `COc1ccc(-n2nc3c(c2NC(=O)Cc2ccc(OC)c(OC)c2)CS(=O)(=O)C3)cc1`, the “% Inhibition @ 10 uM” value is 3.23%. In the case of `Cc1ccc(C(=O)NC2CCN(Cc3ccccc3)CC2)cc1`, the “% Inhibition @ 10 uM” value is recorded as -1.52%.
